The name of at least one read-out is uncertain.
System: VLA-4 integrin-dependent eosinophil infiltration
Assay: Dextran pleurisy model (intrapleural dextran, pleural leukocyte infiltration)
Type: in vivo, C57BL/6 mice
Settings: mouse, 4 h after intrapleural dextran
Experimental: Animals, Housing and Viral Testing:
C57BL/6 mice (Jackson, Bar Harbor, Me.), 6-8 weeks old, weighing 20-25 g were used throughout. All mice were acclimated for at least 7-14 days after arrival and maintained under controlled temperature (20-22° C.) and a 12 hr daily light cycle (6.00 A.M.-6.00 P.M.). Mice were housed in laminar flow racks and checked biweekly for viral infections (mouse hepatitis virus, minute virus of mice, rodent orphan parvovirus, Sendai) with kits obtained from Oreganon Teknika (Durham, N.C.) using established enzyme-linked immunoabsorbent assays. Mice testing positive for any of the above were omitted from the study. All mice were fed standard laboratory chow (Upjohn Lab Rodent Irradiated Mouse Chow, #5011-3, PMI Feeds, St. Louis, Mo.) and acidified drinking water (pH 5.0) ad libitum.
Induction of Inflammation by Intrapleural Injection of Dextran:
Intrapleural injections were made using a 27G needle cut to 3-4 mm and blunted by filing. Injections were made by inserting the needle between the mid-intercostal ribs on the right side of the thoracic cavity.
Dextran (MW 5-40×10^6, St Louis, Mo.) was injected as a 10% solution in saline in a volume of 100 μl/mouse. Care was taken to avoid bleeding at the site of injection at which the intercostal muscles were cut to facilitate smooth insertion of the needle.
Quantitation of Pleural Inflammatory Leukocyte Responses:
Pleural leukocytes were collected as follows: 4 h post-induction, pleural inflammatory exudate was removed by washing with 2×1.0 ml Ca^++/Mg^++ free HBSS (Gibco, Grand Island, N.Y.) containing 45 mg EDTA/100 ml HBSS, 4° C. Total leukocyte counts were made by hemocytometer following erythrocyte lysis in 2% acetic acid in PBS buffer; exudate leukocyte pellets were resuspended in serum for cytospin preparations and stained (Diff Quik, Baxter Healthcare, McGraw Park, Ill.) for differential leukocyte counts (neutrophils, eosinophils, and mononuclear leukocytes).
The pleural cavities of mice receiving either no intrapleural injection, or saline were washed and the cells counted in the same way to estimate baseline or saline-induced pleural leukocyte counts respectively.
Administration of Compounds:
All drugs were dissolved in PBS and the pH adjusted to 7.5 with NaOH. Each compound was administered intravenously through the retroorbital sinus at hourly intervals (0-3 h) starting from time “0” as indicated.
The following compounds were tested for their inhibitory effects on dextran-induced leukocyte infiltration: Examples 3, 8, 9, 10, 12, 16, 37, 62, 66, 67, 99, 100, 111, 113, 115, 127, 131, 141, 184, 185, 192, PBS (saline) was administered iv. as a control. Inhibition of eosinophil infiltration, which was suppressed by anti-alpha-4 Mab (PS/2, 50%), was used as a readout of VLA-4 antagonist activity of the compounds tested. Data for neutrophils are also reported.

Row | SMILES | % Inhibition of Eosinophil infiltration (Eos) (dose 50 × 2 iv) | % Inhibition of Eosinophil infiltration (Eos) (dose 100 × 1 po)
1 | O=C(Nc1ccc(C[C@H](NC(=O)[C@@H]2CCCCN2C(=O)C2CCCO2)C(=O)O)cc1)c1c(Cl)cccc1Cl (stereo partly shown) [Example 192] | B (B: 20-39) | –
2 | O=C(Nc1ccc(C[C@H](NC(=O)[C@@H]2CCCCN2C(=O)c2cccnc2)C(=O)O)cc1)c1c(Cl)cccc1Cl [Example 185] | B (B: 20-39) | –
3 | CN1C(=O)CCC1(CCC(=O)O)CCC(=O)N[C@@H](Cc1ccc(NC(=O)c2c(Cl)cccc2Cl)cc1)C(=O)O (stereo partly drawn) [Example 111, 2-[3-[[(1S)-1-Carboxy-2-[4-[(2,6-dichlorobenzoyl)amino]phenyl]ethyl]amino]-3-oxo-propyl]-1-methyl-5-oxo-2-pyrrolidinepropanoic Acid] | C (C<19) | –
4 | CC(C)(C)OC(=O)N1CCSC[C@H]1C(=O)N[C@@H](Cc1ccc(NC(=O)c2c(Cl)cccc2Cl)cc1)C(=O)O (relative stereo) [Example 100, [R-(R*,S*)]-3-[[[1-Carboxy-2-[4-[(2,6-dichlorobenzoyl)amino]phenyl]ethyl]amino]carbonyl]-4-thiomorpholinecarboxylic Acid 4-(1,1-Dimethylethyl)ester] | B (B: 20-39) | –
5 | O=C(O)CCC(=O)N1CCSC[C@H]1C(=O)N[C@@H](Cc1ccc(NC(=O)c2c(Cl)cccc2Cl)cc1)C(=O)O (relative stereo) [Example 99, [R-(R*,S*)]-3-[[[1-Carboxy-2-[4-[(2,6-dichlorobenzoyl)amino]phenyl]ethyl]amino]carbonyl]-γ-oxo-4-thiomorpholinebutanoic Acid] | A (A>40) | –
6 | CC(=O)N1CSC[C@@H]1C(=O)N[C@@H](Cc1ccc(OCc2c(Cl)cccc2Cl)cc1)C(=O)O [Example 66, N-[[(4S)-3-Acetyl-4-thiazolidinyl]carbonyl]-O-[(2,6-dichlorophenyl)methyl]-L-tyrosine] | A (A>40) | –
7 | O=C(O)CCC(=O)N1CSC[C@@H]1C(=O)N[C@@H](Cc1ccc(NC(=O)c2c(Cl)cccc2Cl)cc1)C(=O)O (relative stereo) [Example 9, [S-(R*,R*)]-4-[[[1-Carboxy-2-[4-[(2,6-dichlorobenzoyl)amino]phenyl]ethyl]amino]carbonyl]-γ-oxo-3-thiazolidinebutanoic Acid] | A (A>40) | –
8 | CC(C)(C)OC(=O)N1CSC[C@@H]1C(=O)N[C@@H](Cc1ccc(NC(=O)c2c(Cl)cccc2Cl)cc1)C(=O)O (relative stereo) [Example 10, [S-(R*,R*)]-4-[[[1-Carboxy-2-[4-[(2,6-dichlorobenzoyl)amino]phenyl]ethyl]amino]carbonyl]-3-thiazolidinecarboxylic Acid 3-(1,1-Dimethylethyl)ester] | – | B (B: 20-39)
9 | CCOC(=O)N1CSC[C@H]1C(=O)N[C@@H](Cc1ccc(NC(=O)c2c(Cl)cccc2Cl)cc1)C(=O)O (relative stereo) [Example 16, [R-(R*,S*)]-4-[[[1-Carboxy-2-[4-[(2,6-dichlorobenzoyl)amino]phenyl]ethyl]amino]carbonyl]-3-thiazolidinecarboxylic Acid 3-Ethyl Ester] | A (A>40) | –
10 | COC(=O)CCC(=O)N1CSC[C@@H]1C(=O)N[C@@H](Cc1ccc(NC(=O)c2c(Cl)cccc2Cl)cc1)C(=O)OC (relative stereo) [Example 8, [S-(R*,R*)]-4-[[[1-[[4-[(2,6-Dichlorobenzoyl)amino]phenyl]methyl]-2-methoxy-2-oxoethyl]amino]carbonyl]-γ-oxo-3-thiazolidinebutanoic Acid 3-Methyl Ester] | – | C (C<19)
11 | O=C(O)[C@H](Cc1ccc(OCc2c(Cl)cccc2Cl)cc1)NC(=O)[C@H]1CSCN1C(=O)OCCN1CCOCC1 (relative stereo) [Example 37] | A (A>40) | –
12 | CCOC(=O)N1[C@@H](C(=O)O)C[C@@H]1C(=O)N[C@@H](Cc1ccc(NC(=O)c2c(Cl)cccc2Cl)cc1)C(=O)O [Example 141, [2R-(2α,4β(S*)]-4-[[[1-Carboxy-2-[4-[(2,6-dichlorobenzoyl)amino]phenyl]ethyl]-amino]-carbonyl]-1,2-azetidinedicarboxylic Acid 1-Ethyl Ester] | A (A>40) | –
13 | O=C(O)CCC1(CCC(=O)N[C@@H](Cc2ccc(OCc3c(Cl)cccc3Cl)cc2)C(=O)O)CCC(=O)N1 (stereo partly drawn) [Example 113, 2-[3-[[(1S)-1-Carboxy-2-[4-[(2,6-dichlorophenyl)methoxy]phenyl]ethyl]amino]-3-oxo-propyl]-5-oxo-2-pyrrolidinepropanoic Acid] | C (C<19) | –
14 | O=C(O)CCC1(CCC(=O)N[C@@H](Cc2ccc(NC(=O)c3c(Cl)cccc3Cl)cc2)C(=O)O)CCC(=O)N1 (stereo partly shown) [Example 115] | B (B: 20-39) | –
15 | CS(=O)(=O)N1CSC[C@@H]1C(=O)N[C@@H](Cc1ccc(NC(=O)c2c(Cl)cccc2Cl)cc1)C(=O)O [Example 3, 4-[(2,6-Dichlorobenzoyl)amino]-N-[[(4S)-3-(methylsulfonyl)-4-thiazolidinyl]carbonyl]-L-phenylalanine] | A (A>40) | –
16 | O=C(Nc1ccc(C[C@H](NC(=O)[C@H]2COCN2C(=O)OCc2ccccc2)C(=O)O)cc1)c1c(Cl)cccc1Cl [Example 127, [R-(R*,S*)]-4-[[[1-Carboxy-2-[4-[(2,6-dichlorobenzoyl)amino]phenyl]ethyl]amino]-carbonyl]-3-oxazolidinecarboxylic Acid 3-(Phenylmethyl)ester] | B (B: 20-39) | –
17 | CCOC(=O)N1CSC[C@@H]1C(=O)N[C@@H](Cc1ccc(NC(=O)c2c(Cl)cccc2Cl)cc1)C(=O)O (relative stereo) [Example 12, [S-(R*,R*)]-4-[[[1-Carboxy-2-[4-[(2,6-dichlorobenzoyl)amino]phenyl]ethyl]amino]carbonyl]-3-thiazolidinecarboxylic Acid 3-Ethyl Ester] | A (A>40) | –
18 | CC(=O)N1CSC[C@@H]1C(=O)N[C@@H](Cc1ccc(NC(=O)c2c(Cl)cccc2Cl)cc1)C(=O)O [Example 62, N-[[(4S)-3-Acetyl-4-thiazolidinyl]carbonyl]-4-[(2,6-dichlorobenzoyl)amino]-L-phenylalanine] | B (B: 20-39) | –
19 | O=C(O)CCC(=O)N1CSC[C@H]1C(=O)N[C@@H](Cc1ccc(NC(=O)c2c(Cl)cccc2Cl)cc1)C(=O)O (relative stereo) [Example 67, [R-(R*,S*)]-4-[[[1-Carboxy-2-[4-[(2,6-dichlorobenzoyl)amino]phenyl]ethyl]amino]carbonyl]-γ-oxo-3-thiazolidinebutanoic Acid] | A (A>40) | –

— patent US6685617B1, “Inhibitors of α4β1 mediated cell adhesion” (Pharmacia & Upjohn Company, priority 1998, dated 2004)
